From the RNAGym collection of RNA variant scans (doi:10.7554/elife.90254)
The source gives no read counts; variants with many changes may rest on few reads.

B1: OR4K15 (parent)
chain: GUUAACGGUCAUAGGCCAUGGAAACUAGGAGCACCAUUUCGCUGCCAGUGAAGAAAUGAACAAAGAAAAUCUGGGCCAGGCAGGCAUCAAAAGAAAUAGUCUUGCGCUCAACCAGAAAGUCUGUAAUCAUUUUAAGGGUA

Variants of: B1
Test: self-cleavage, relative activity (ratio to wild type); higher = more cleavage; in vitro, sequencing; the parent is a self-cleaving ribozyme

Question: With A36U A62G C71A A91G as the variant, how does the self-cleavage read?
Answer: 0.44

Question: For A24G A90U U102C U122C, which self-cleavage is on record?
Answer: 0.94

Question: With U2A A23G A64U U124C A135G as the variant, how does the self-cleavage read?
Answer: 0.45

Question: For C25U A114U A126G U139C, which self-cleavage is on record?
Answer: 0.03

Question: With A13G A18G U19C A64U A68G A91G A94C U131C as the variant, how does the self-cleavage read?
Answer: 0.56

Question: With A78C A91G U100C as the variant, how does the self-cleavage read?
Answer: 0.3

Question: For U9C A111G A140G, which self-cleavage is on record?
Answer: 0.03

Question: For A5G U37C U38C U122C, which self-cleavage is on record?
Answer: 0.74

Question: With A67G U72A A82U U108C as the variant, how does the self-cleavage read?
Answer: 0.01

Question: For A22G G58U U72C A110C A118G, which self-cleavage is on record?
Answer: 0

Question: Which self-cleavage does the source give for A36C A116G U130C here?
Answer: 0.76

Question: With U43C A78G U130C as the variant, how does the self-cleavage read?
Answer: 0.05

Question: With U2C U37C U124A as the variant, how does the self-cleavage read?
Answer: 0.79

Question: With A23G U43C C112A A117G as the variant, how does the self-cleavage read?
Answer: 0.03

Question: With U3C U12C A47G A68G U103C G138A as the variant, how does the self-cleavage read?
Answer: 1

Question: With U43C A68G A117G as the variant, how does the self-cleavage read?
Answer: 2.2

Question: With A91U A114U U132C as the variant, how does the self-cleavage read?
Answer: 0.09

Question: With U3C A62C C113A as the variant, how does the self-cleavage read?
Answer: 0.06

Question: Which self-cleavage does the source give for U37C A86U A91G A94G G99A U102A G106C A117G here?
Answer: 0.01

Question: Which self-cleavage does the source give for A18U U49C A116C here?
Answer: 0.06

Question: With A23G U43A U132C as the variant, how does the self-cleavage read?
Answer: 2.38

Question: With A11U A13G A47G U87A U100C U108C as the variant, how does the self-cleavage read?
Answer: 0.09

Question: With U43A A67G A117G A140U as the variant, how does the self-cleavage read?
Answer: 1.1

Question: With A18G A24G U43C as the variant, how does the self-cleavage read?
Answer: 0.94

Question: For C6U A13U A66G A82G, which self-cleavage is on record?
Answer: 0.23

Question: For A23G A64G A90G, which self-cleavage is on record?
Answer: 0.31

Question: With A60G A92G U139A as the variant, how does the self-cleavage read?
Answer: 1.01

Question: Which self-cleavage does the source give for A60G G74A U100C here?
Answer: 0.44

Question: Which self-cleavage does the source give for A47G A55G A111G here?
Answer: 0.03

Question: Which self-cleavage does the source give for U87A U120C A135G here?
Answer: 1.39

Question: With A36G A69G U127C A129G U139C as the variant, how does the self-cleavage read?
Answer: 0.34

Question: Which self-cleavage does the source give for A24C A47G A94G A118G U120C G137U here?
Answer: 0.14

Question: With A78C U124C A129G as the variant, how does the self-cleavage read?
Answer: 0.12

Question: With A18U A60U A95G as the variant, how does the self-cleavage read?
Answer: 1.73

Question: For A24G C40A A118G U122C, which self-cleavage is on record?
Answer: 0.95

Question: Which self-cleavage does the source give for A30G A51G A69G U131C here?
Answer: 0.98

Question: For A30G U49C A82G U103C U130C, which self-cleavage is on record?
Answer: 1.27

Question: For A18C A22G A36G U100C U122C, which self-cleavage is on record?
Answer: 1.88

Question: With A52G A94G A96G as the variant, how does the self-cleavage read?
Answer: 0.54

Question: For A51G U57A A110U, which self-cleavage is on record?
Answer: 0.49

Question: For U19C A23G C61U U97C, which self-cleavage is on record?
Answer: 0.5

Question: Which self-cleavage does the source give for A24G A60U A92G here?
Answer: 1.09

Question: For A30G A62G A118G, which self-cleavage is on record?
Answer: 0.89

Question: Which self-cleavage does the source give for C16U G50A A67G U103C U132C here?
Answer: 0.31

Question: Which self-cleavage does the source give for U19C A64G U122C here?
Answer: 1.63

Question: For A60G A92G U122A U132A, which self-cleavage is on record?
Answer: 1.17

Question: For A55G A59G A66U, which self-cleavage is on record?
Answer: 0.42

Question: For U57C G84A A90U U97C C105U, which self-cleavage is on record?
Answer: 0.2

Question: For U9A A18U A55U A78U, which self-cleavage is on record?
Answer: 0.3

Question: For U72C A91G A117G U132C U139C, which self-cleavage is on record?
Answer: 0.13

Question: With A22G A90G G138U as the variant, how does the self-cleavage read?
Answer: 1.54

Question: With A11U A23G U39C A63G as the variant, how does the self-cleavage read?
Answer: 0.7

Question: With U43A A52G A66G A118G as the variant, how does the self-cleavage read?
Answer: 0.51

Question: For A22U A27G U38C A62U U122C A125G, which self-cleavage is on record?
Answer: 0.21

Question: For U38C A82G A94G, which self-cleavage is on record?
Answer: 0.24

Question: For U9C U108C A134G A135G, which self-cleavage is on record?
Answer: 0.01

Question: For U3C G44C A64G U108C, which self-cleavage is on record?
Answer: 0.03

Question: For G21A A22G A114G U127C, which self-cleavage is on record?
Answer: 0.05

Question: For A13G A98G U102C, which self-cleavage is on record?
Answer: 2.11

Question: With A78G A86G U100C U131C as the variant, how does the self-cleavage read?
Answer: 0.25

Question: With A36U A62U A68U as the variant, how does the self-cleavage read?
Answer: 2.1

Question: For U9C C35U U100C, which self-cleavage is on record?
Answer: 1.86

Question: For A11G C16G A18G A86G, which self-cleavage is on record?
Answer: 0.51

Question: With U38C A64G U130C U132C A135C as the variant, how does the self-cleavage read?
Answer: 1.07

Question: For A56G U97A A140U, which self-cleavage is on record?
Answer: 1.15

Question: Which self-cleavage does the source give for U3C G73A U100C here?
Answer: 0.18

Question: With A30U U87C U139C as the variant, how does the self-cleavage read?
Answer: 2.36

Question: With A47G A68G A89G A111G as the variant, how does the self-cleavage read?
Answer: 0.02

Question: With A47G U103C A117G U124C as the variant, how does the self-cleavage read?
Answer: 0.35

Question: For G14A A55U U102C A126G, which self-cleavage is on record?
Answer: 1.02

Question: Which self-cleavage does the source give for G1A A54G G74U A117G here?
Answer: 0.3

Question: With A18G A30U A140G as the variant, how does the self-cleavage read?
Answer: 2.46

Question: Which self-cleavage does the source give for A64G U72A C121G U130C here?
Answer: 0.22

Question: Which self-cleavage does the source give for U2C U3C C45U U122C here?
Answer: 0.85

Question: For A22G U37C A62U, which self-cleavage is on record?
Answer: 1.78

Question: Which self-cleavage does the source give for A90G A117U A118G here?
Answer: 0.16

Question: For U12C A55G A135U, which self-cleavage is on record?
Answer: 0.7

Question: Which self-cleavage does the source give for U12C A22G A117G here?
Answer: 1.15

Question: Which self-cleavage does the source give for G41U G74U U122A here?
Answer: 0.27

Question: Which self-cleavage does the source give for A89G A92G U108C U122C A126G U130C here?
Answer: 0.01

Question: For G53U A78G A82G U139C, which self-cleavage is on record?
Answer: 0.1

Question: With U9A U87C A111G as the variant, how does the self-cleavage read?
Answer: 0.04

Question: For U2C A18G A59G, which self-cleavage is on record?
Answer: 0.41
